Results published in patent publication EP1141005B1 (Angiogenetics Sweden AB, dated 2007).

Molecular target: GAL4/HIF 71-826 (human, UniProt P04386 1-147 (Saccharomyces cerevisiae entry))
Assay: cell-based or functional assay

B1: SRC-1 (full-length transcriptional coactivator SRC-1) (other, human, UniProt Q15788 1-1441, looked up)
chain: MSGLGDSSSDPANPDSHKRKGSPCDTLASSTEKRRREQENKYLEELAELLSANISDIDSLSVKPDKCKILKKTVDQIQLMKRMEQEKSTTDDDVQKSDISSSSQGVIEKESLGPLLLEALDGFFFVVNCEGRIVFVSENVTSYLGYNQEELMNTSVYSILHVGDHAEFVKNLLPKSLVNGVPWPQEATRRNSHTFNCRMLIHPPDEPGTENQEACQRYEVMQCFTVSQPKSIQEDGEDFQSCLICIARRLPRPPAITGVESFMTKQDTTGKIISIDTSSLRAAGRTGWEDLVRKCIYAFFQPQGREPSYARQLFQEVMTRGTASSPSYRFILNDGTMLSAHTKCKLCYPQSPDMQPFIMGIHIIDREHSGLSPQDDTNSGMSIPRVNPSVNPSISPAHGVARSSTLPPSNSNMVSTRINRQQSSDLHSSSHSNSSNSQGSFGCSPGSQIVANVALNQGQASSQSSNPSLNLNNSPMEGTGISLAQFMSPRRQVTSGLATRPRMPNNSFPPNISTLSSPVGMTSSACNNNNRSYSNIPVTSLQGMNEGPNNSVGFSASSPVLRQMSSQNSPSRLNIQPAKAESKDNKEIASILNEMIQSDNSSSDGKPLDSGLLHNNDRLSDGDSKYSQTSHKLVQLLTTTAEQQLRHADIDTSCKDVLSCTGTSNSASANSSGGSCPSSHSSLTERHKILHRLLQEGSPSDITTLSVEPDKKDSASTSVSVTGQVQGNSSIKLELDASKKKESKDHQLLRYLLDKDEKDLRSTPNLSLDDVKVKVEKKEQMDPCNTNPTPMTKPTPEEIKLEAQSQFTADLDQFDQLLPTLEKAAQLPGLCETDRMDGAVTSVTIKSEILPASLQSATARPTSRLNRLPELELEAIDNQFGQPGTGDQIPWTNNTVTAINQSKSEDQCISSQLDELLCPPTTVEGRNDEKALLEQLVSFLSGKDETELAELDRALGIDKLVQGGGLDVLSERFPPQQATPPLIMEERPNLYSQPYSSPSPTANLPSPFQGMVRQKPSLGTMPVQVTPPRGAFSPGMGMQPRQTLNRPPAAPNQLRLQLQQRLQGQQQLIHQNRQAILNQFAATAPVGINMRSGMQQQITPQPPLNAQMLAQRQRELYSQQHRQRQLIQQQRAMLMRQQSFGNNLPPSSGLPVQMGNPRLPQGAPQQFPYPPNYGTNPGTPPASTSPFSQLAANPEASLANRNSMVSRGMTGNIGGQFGTGINPQMQQNVFQYPGAGMVPQGEANFAPSLSPGSSMVPMPIPPPQSSLLQQTPPASGYQSPDMKAWQQGAIGNNNVFSQAVQNQPTPAQPGVYNNMSITVSMAGGNTNVQNMNPMMAQMQMSSLQMPGMNTVCPEQINDPALRHTGLYCNQLSSTDLLKTEADGTQQVQQVQVFADVQCTVNLVGGDPYLNQPGPLGTQKPTSGPQTPQAQQKSLLQQLLTE
modifications: [35S]methionine-labeled in the pull-down of paragraph 40 (in vitro translated)
  luciferase activity, GAL4-responsive reporter, COS7, hypoxia with SRC-1 against hypoxia without exogenous coactivators: 34 fold
